Residue numbers refer to the chain shown, from its start. The list shows a part of the results.
T1: RBFOX1 RRM (Homo sapiens, UniProt Q9NWB1 109-208)
T1 sequence: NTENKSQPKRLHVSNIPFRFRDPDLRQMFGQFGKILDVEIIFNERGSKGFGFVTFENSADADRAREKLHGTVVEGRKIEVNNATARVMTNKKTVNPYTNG

B1: GCUGGUU (DNA:RNA)
RNA: GGGAGACCGGAAUUCAGAUUGUCCGCUGGUUUUAAAUCCCGUCGUAGCCACCA
DNA 1: CAATCTGAATTCCGGTCTCCC
DNA 2: TGGTGGCTACGACGGGATT
B2: AGCGCAG (DNA:RNA)
RNA: B1 RNA with G25A, C26G, U27C, G29C, U30A, U31G
DNA 1: CAATCTGAATTCCGGTCTCCC
DNA 2: TGGTGGCTACGACGGGATT
B3: UUACAGU (DNA:RNA)
RNA: B1 RNA with G25U, C26U, U27A, G28C, G29A, U30G
DNA 1: CAATCTGAATTCCGGTCTCCC
DNA 2: TGGTGGCTACGACGGGATT
B4: CAGGCAA (DNA:RNA)
RNA: B1 RNA with G25C, C26A, U27G, G29C, U30A, U31A
DNA 1: CAATCTGAATTCCGGTCTCCC
DNA 2: TGGTGGCTACGACGGGATT
B5: GUUGGGU (DNA:RNA)
RNA: B1 RNA with C26U, U30G
DNA 1: CAATCTGAATTCCGGTCTCCC
DNA 2: TGGTGGCTACGACGGGATT
B6: AUGUAGA (DNA:RNA)
RNA: GGGAGACCGGAAUUCAGAUUGUCCAUGUAGAUUAAAUCCCGUCGUAGCCACCA
DNA 1: CAATCTGAATTCCGGTCTCCC
DNA 2: TGGTGGCTACGACGGGATT
B7: GGGUAUG (DNA:RNA)
RNA: B6 RNA with A25G, U26G, G30U, A31G
DNA 1: CAATCTGAATTCCGGTCTCCC
DNA 2: TGGTGGCTACGACGGGATT
B8: CAACGAG (DNA:RNA)
RNA: B1 RNA with G25C, C26A, U27A, G28C, U30A, U31G
DNA 1: CAATCTGAATTCCGGTCTCCC
DNA 2: TGGTGGCTACGACGGGATT
B9: GCGUGGA (DNA:RNA)
RNA: B6 RNA with A25G, U26C, A29G
DNA 1: CAATCTGAATTCCGGTCTCCC
DNA 2: TGGTGGCTACGACGGGATT
B10: GACUGCC (DNA:RNA)
RNA: B1 RNA with C26A, U27C, G28U, U30C, U31C
DNA 1: CAATCTGAATTCCGGTCTCCC
DNA 2: TGGTGGCTACGACGGGATT
B11: CAGACUG (DNA:RNA)
RNA: B6 RNA with A25C, U26A, U28A, A29C, G30U, A31G
DNA 1: CAATCTGAATTCCGGTCTCCC
DNA 2: TGGTGGCTACGACGGGATT
B12: ACGCUAA (DNA:RNA)
RNA: B6 RNA with U26C, U28C, A29U, G30A
DNA 1: CAATCTGAATTCCGGTCTCCC
DNA 2: TGGTGGCTACGACGGGATT
B13: CUUACGG (DNA:RNA)
RNA: B6 RNA with A25C, G27U, U28A, A29C, A31G
DNA 1: CAATCTGAATTCCGGTCTCCC
DNA 2: TGGTGGCTACGACGGGATT
B14: GCUUCAU (DNA:RNA)
RNA: B1 RNA with G28U, G29C, U30A
DNA 1: CAATCTGAATTCCGGTCTCCC
DNA 2: TGGTGGCTACGACGGGATT
B15: UAUGCGG (DNA:RNA)
RNA: B1 RNA with G25U, C26A, G29C, U30G, U31G
DNA 1: CAATCTGAATTCCGGTCTCCC
DNA 2: TGGTGGCTACGACGGGATT
B16: AAGUUAA (DNA:RNA)
RNA: B6 RNA with U26A, A29U, G30A
DNA 1: CAATCTGAATTCCGGTCTCCC
DNA 2: TGGTGGCTACGACGGGATT
B17: GAACAAC (DNA:RNA)
RNA: B6 RNA with A25G, U26A, G27A, U28C, G30A, A31C
DNA 1: CAATCTGAATTCCGGTCTCCC
DNA 2: TGGTGGCTACGACGGGATT
B18: UUGCCAC (DNA:RNA)
RNA: B6 RNA with A25U, U28C, A29C, G30A, A31C
DNA 1: CAATCTGAATTCCGGTCTCCC
DNA 2: TGGTGGCTACGACGGGATT
B19: ACCGCCU (DNA:RNA)
RNA: B1 RNA with G25A, U27C, G29C, U30C
DNA 1: CAATCTGAATTCCGGTCTCCC
DNA 2: TGGTGGCTACGACGGGATT
B20: CUAUUGU (DNA:RNA)
RNA: B6 RNA with A25C, G27A, A29U, A31U
DNA 1: CAATCTGAATTCCGGTCTCCC
DNA 2: TGGTGGCTACGACGGGATT
B21: GCAGCUC (DNA:RNA)
RNA: B1 RNA with U27A, G29C, U31C
DNA 1: CAATCTGAATTCCGGTCTCCC
DNA 2: TGGTGGCTACGACGGGATT
B22: GACUCGU (DNA:RNA)
RNA: B6 RNA with A25G, U26A, G27C, A29C, A31U
DNA 1: CAATCTGAATTCCGGTCTCCC
DNA 2: TGGTGGCTACGACGGGATT
B23: GGGCGAA (DNA:RNA)
RNA: B6 RNA with A25G, U26G, U28C, A29G, G30A
DNA 1: CAATCTGAATTCCGGTCTCCC
DNA 2: TGGTGGCTACGACGGGATT
B24: CACCCAU (DNA:RNA)
RNA: B1 RNA with G25C, C26A, U27C, G28C, G29C, U30A
DNA 1: CAATCTGAATTCCGGTCTCCC
DNA 2: TGGTGGCTACGACGGGATT
B25: CAUUGGU (DNA:RNA)
RNA: B1 RNA with G25C, C26A, G28U, U30G
DNA 1: CAATCTGAATTCCGGTCTCCC
DNA 2: TGGTGGCTACGACGGGATT
B26: CUUCACA (DNA:RNA)
RNA: B6 RNA with A25C, G27U, U28C, G30C
DNA 1: CAATCTGAATTCCGGTCTCCC
DNA 2: TGGTGGCTACGACGGGATT
B27: CUUUUAC (DNA:RNA)
RNA: B6 RNA with A25C, G27U, A29U, G30A, A31C
DNA 1: CAATCTGAATTCCGGTCTCCC
DNA 2: TGGTGGCTACGACGGGATT
B28: GCUAGCC (DNA:RNA)
RNA: B1 RNA with G28A, U30C, U31C
DNA 1: CAATCTGAATTCCGGTCTCCC
DNA 2: TGGTGGCTACGACGGGATT
B29: AGCAAUU (DNA:RNA)
RNA: B6 RNA with U26G, G27C, U28A, G30U, A31U
DNA 1: CAATCTGAATTCCGGTCTCCC
DNA 2: TGGTGGCTACGACGGGATT
B30: CUAUCCG (DNA:RNA)
RNA: B6 RNA with A25C, G27A, A29C, G30C, A31G
DNA 1: CAATCTGAATTCCGGTCTCCC
DNA 2: TGGTGGCTACGACGGGATT
B31: GUUUACU (DNA:RNA)
RNA: B6 RNA with A25G, G27U, G30C, A31U
DNA 1: CAATCTGAATTCCGGTCTCCC
DNA 2: TGGTGGCTACGACGGGATT

Target: T1, RBFOX1 RRM
Assay: EMSA; HiTS-Eq, 1 nM pool, 10 min; buffer printed only for the single-RNA assays: 10 mM Tris pH 7.5, 150 mM NaCl, 3.4 mM EDTA, 0.001% NP-40, 30 C
Settings: tags: His6 N-terminal (pET28a); label: 5' 32P
Outline: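 Purified wild-type or mutant RbFox RRM at increasing concentrations was equilibrated with 1 nM of 5′-radiolabelled RNA carrying 7 randomized nucleotides for 10 min in 50 µL. Unbound RNA was separated by 8% native PAGE and sequenced. Relative association constants came from read-count changes of each RNA species compared with the control reaction, normalised to the cognate motif.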

| Binder | binding signal |
| --- | --- |
| B1 | 0.0289 KA relative to UGCAUGU |
| B2 | 0.0119 KA relative to UGCAUGU |
| B3 | 0.00852 KA relative to UGCAUGU |
| B4 | 0.00735 KA relative to UGCAUGU |
| B5 | 0.0137 KA relative to UGCAUGU |
| B6 | 0.00728 KA relative to UGCAUGU |
| B7 | 0.0229 KA relative to UGCAUGU |
| B8 | 0.00579 KA relative to UGCAUGU |
| B9 | 0.0179 KA relative to UGCAUGU |
| B10 | 0.0195 KA relative to UGCAUGU |
| B11 | 0.0132 KA relative to UGCAUGU |
| B12 | 0.00214 KA relative to UGCAUGU |
| B13 | 0.00764 KA relative to UGCAUGU |
| B14 | 0.00945 KA relative to UGCAUGU |
| B15 | 0.0177 KA relative to UGCAUGU |
| B16 | 0.00186 KA relative to UGCAUGU |

| Binder | binding signal |
| --- | --- |
| B17 | 0.00288 KA relative to UGCAUGU |
| B18 | 0.0102 KA relative to UGCAUGU |
| B19 | 0.00367 KA relative to UGCAUGU |
| B20 | 0.0108 KA relative to UGCAUGU |
| B21 | 0.00975 KA relative to UGCAUGU |
| B22 | 0.0194 KA relative to UGCAUGU |
| B23 | 0.0144 KA relative to UGCAUGU |
| B24 | 0.00273 KA relative to UGCAUGU |
| B25 | 0.0102 KA relative to UGCAUGU |
| B26 | 0.000879 KA relative to UGCAUGU |
| B27 | 0.00588 KA relative to UGCAUGU |
| B28 | 0.015 KA relative to UGCAUGU |
| B29 | 0.00513 KA relative to UGCAUGU |
| B30 | 0.00475 KA relative to UGCAUGU |
| B31 | 0.0106 KA relative to UGCAUGU |
